The other results are listed elsewhere or left out.
Experiments:
Experiment in all cases: glycan array binding signal (z-score within array); higher = stronger binding
Details in all cases: glycan notation: IUPAC condensed, linker removed
[1] = target: Neu5Ac(a2-6)Gal(b1-4)GlcNAc(b1-6)[Gal(b1-3)]GalNAc
Procedure, shortened: (§1)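 Arrays were curated from the Consortium for Functional Glycomics database, 3228 in total, and kept only where the protein sequence was available. Binding is expressed as a within-array Z-score. This score was averaged across arrays of the same protein sequence at different concentrations or buffers and across linkers, and negative values can be read as non-binding.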

[2] = target: Neu5Ac(a2-6)Gal(b1-4)GlcNAc6S
Procedure, shortened: as §1

Neu5Ac(a2-6)GalNAc = target: Neu5Ac(a2-6)GalNAc
Procedure, shortened: as §1

[3] = target: Neu5Ac(a2-6)GalNAc(b1-4)GlcNAc
Procedure, shortened: as §1

[4] = target: Neu5Ac(a2-6)GalNAc(b1-4)GlcNAc6S
Procedure, shortened: as §1

[5] = target: Neu5Ac(a2-6)GlcNAc(b1-4)GlcNAc
Procedure, shortened: as §1

[6] = target: Neu5Ac(a2-6)GlcNAc(b1-4)GlcNAc(b1-4)GlcNAc
Procedure, shortened: as §1

Neu5Ac(a2-8)Neu5Ac = target: Neu5Ac(a2-8)Neu5Ac
Procedure, shortened: as §1

[7] = target: Neu5Ac(a2-8)Neu5Ac(a2-3)Gal(b1-3)GalNAc(b1-4)[Neu5Ac(a2-3)]Gal(b1-4)Glc
Procedure, shortened: as §1

[8] = target: Neu5Ac(a2-8)Neu5Ac(a2-3)Gal(b1-3)GalNAc(b1-4)[Neu5Ac(a2-8)Neu5Ac(a2-3)]Gal(b1-4)Glc
Procedure, shortened: as §1

[9] = target: Neu5Ac(a2-8)Neu5Ac(a2-3)Gal(b1-4)Glc
Procedure, shortened: as §1

[10] = target: Neu5Ac(a2-8)Neu5Ac(a2-3)Gal(b1-4)GlcNAc
Procedure, shortened: as §1

[11] = target: Neu5Ac(a2-8)Neu5Ac(a2-3)[Gal(b1-3)GalNAc(b1-4)]Gal(b1-4)Glc
Procedure, shortened: as §1

[12] = target: Neu5Ac(a2-8)Neu5Ac(a2-3)[GalNAc(b1-4)]Gal(b1-4)Glc
Procedure, shortened: as §1

[13] = target: Neu5Ac(a2-8)Neu5Ac(a2-8)Neu5Ac
Procedure, shortened: as §1

[14] = target: Neu5Ac(a2-8)Neu5Ac(a2-8)Neu5Ac(a2-3)Gal(b1-4)Glc
Procedure, shortened: as §1

[15] = target: Neu5Ac(a2-8)Neu5Ac(a2-8)Neu5Ac(a2-3)[Gal(b1-3)GalNAc(b1-4)]Gal(b1-4)Glc
Procedure, shortened: as §1

[16] = target: Neu5Ac(a2-8)Neu5Ac(a2-8)Neu5Ac(a2-3)[GalNAc(b1-4)]Gal(b1-4)Glc
Procedure, shortened: as §1

[17] = target: Neu5Ac(a2-8)Neu5Ac(a2-8)Neu5Ac(a2-8)Neu5Ac(a2-3)[GalNAc(b1-4)]Gal(b1-4)Glc
Procedure, shortened: as §1

[18] = target: Neu5Ac(a2-8)Neu5Gc(a2-3)Gal(b1-4)GlcNAc
Procedure, shortened: as §1

[19] = target: Neu5Ac(b2-6)Gal(b1-4)GlcNAc
Procedure, shortened: as §1

Neu5Ac(b2-6)GalNAc = target: Neu5Ac(b2-6)GalNAc
Procedure, shortened: as §1

[20] = target: Neu5Ac9Ac(a2-3)Gal(b1-3)GlcNAc
Procedure, shortened: as §1

[21] = target: Neu5Ac9Ac(a2-3)Gal(b1-4)GlcNAc
Procedure, shortened: as §1

[22] = target: Neu5Ac9Ac(a2-6)Gal(b1-4)GlcNAc
Procedure, shortened: as §1

[23] = target: Neu5Gc(a2-3)Gal(b1-3)GlcNAc
Procedure, shortened: as §1

[24] = target: Neu5Gc(a2-3)Gal(b1-3)[Fuc(a1-4)]GlcNAc
Procedure, shortened: as §1

Neu5Gc(a2-3)Gal(b1-4)Glc = target: Neu5Gc(a2-3)Gal(b1-4)Glc
Procedure, shortened: as §1

[25] = target: Neu5Gc(a2-3)Gal(b1-4)GlcNAc
Procedure, shortened: as §1

[26] = target: Neu5Gc(a2-3)Gal(b1-4)GlcNAc(b1-3)Gal(b1-4)GlcNAc(b1-2)Man(a1-3)[Neu5Gc(a2-3)Gal(b1-4)GlcNAc(b1-3)Gal(b1-4)GlcNAc(b1-2)Man(a1-6)]Man(b1-4)GlcNAc(b1-4)GlcNAc
Procedure, shortened: as §1

[27] = target: Neu5Gc(a2-3)Gal(b1-4)[Fuc(a1-3)]GlcNAc
Procedure, shortened: as §1

[28] = target: Neu5Gc(a2-6)Gal(b1-4)GlcNAc
Procedure, shortened: as §1

Neu5Gc(a2-6)GalNAc = target: Neu5Gc(a2-6)GalNAc
Procedure, shortened: as §1

[29] = target: Neu5Gc(a2-8)Neu5Ac(a2-3)Gal(b1-4)GlcNAc
Procedure, shortened: as §1

[30] = target: Neu5Gc(a2-8)Neu5Gc(a2-3)Gal(b1-4)GlcNAc
Procedure, shortened: as §1

[31] = target: Neu5Gc(a2-8)Neu5Gc(a2-3)Gal(b1-4)GlcNAc(b1-3)Gal(b1-4)GlcNAc
Procedure, shortened: as §1

[32] = target: Neu5Gc(a2-8)Neu5Gc(a2-6)Gal(b1-4)GlcNAc
Procedure, shortened: as §1

[33] = target: Neu5Gc(b2-6)Gal(b1-4)GlcNAc
Procedure, shortened: as §1

B1: Pwp4 (Candida glabrata) (protein)
chain: MGSSHHHHHHSSGLVPRGSHMASVGNPITVSNVCSFPKNWHRTAGFRALTARLGIGIQSDSYKELLNYPGTFQLTTQQSSTTKPNFQISGLVGNIYGLTIVPSYLLVELTGYFVPPVSGEYTFSLEGSDDAAIIFIANPSTFKCGHVEDWPTAYDNDVTVTESIHATRTIYMIEGVAYPIRIAYYNGLSLGKLQASFTDPEGVKRVDWNGYIWRYDSCDTCSYV
[1]
  glycan array binding signal (z-score): -0.462
[2]
  glycan array binding signal (z-score): -0.336
Neu5Ac(a2-6)GalNAc
  glycan array binding signal (z-score): -0.284
[3]
  glycan array binding signal (z-score): 0.002
[4]
  glycan array binding signal (z-score): -0.494
[5]
  glycan array binding signal (z-score): 1.6
[6]
  glycan array binding signal (z-score): -0.139
Neu5Ac(a2-8)Neu5Ac
  glycan array binding signal (z-score): 0.954
[7]
  glycan array binding signal (z-score): -0.601
[8]
  glycan array binding signal (z-score): -0.209
[9]
  glycan array binding signal (z-score): -0.58
[10]
  glycan array binding signal (z-score): 0.507
[11]
  glycan array binding signal (z-score): -0.578
[12]
  glycan array binding signal (z-score): 0.452
[13]
  glycan array binding signal (z-score): -0.368
[14]
  glycan array binding signal (z-score): -0.348
[15]
  glycan array binding signal (z-score): -0.455
[16]
  glycan array binding signal (z-score): 2.12
[17]
  glycan array binding signal (z-score): -0.578
[18]
  glycan array binding signal (z-score): -0.535
[19]
  glycan array binding signal (z-score): 2.05
Neu5Ac(b2-6)GalNAc
  glycan array binding signal (z-score): -0.747
[20]
  glycan array binding signal (z-score): -0.527
[21]
  glycan array binding signal (z-score): 0.1
[22]
  glycan array binding signal (z-score): -0.46
[23]
  glycan array binding signal (z-score): -0.465
[24]
  glycan array binding signal (z-score): -0.184
Neu5Gc(a2-3)Gal(b1-4)Glc
  glycan array binding signal (z-score): -0.403
[25]
  glycan array binding signal (z-score): 0.991
[26]
  glycan array binding signal (z-score): 0.793
[27]
  glycan array binding signal (z-score): 2
[28]
  glycan array binding signal (z-score): -0.441
Neu5Gc(a2-6)GalNAc
  glycan array binding signal (z-score): -0.587
[29]
  glycan array binding signal (z-score): -0.243
[30]
  glycan array binding signal (z-score): -0.39
[31]
  glycan array binding signal (z-score): 1.68
[32]
  glycan array binding signal (z-score): 1.07
[33]
  glycan array binding signal (z-score): -0.094
